Results reported in publication PMC12136788.
The list shows a part of the results.

B1: chr11:64847196:64847197:-_ENSG00000146670_ENST00000275517|hu_mus|FALSE|FALSE (ssRNA)
RNA: GGGAGUUCUACAGUCCGACGAUCCUGAGUGUACAGCACGGGGGUGCUGGAGGGAGUACCAGGGACACUACAAGUCUUGAAGAGGUCUUCUUUCGUGGGUACCUUGAGCGGAGGGUUGUUCUCUUUUUCCAAAAUAAAAGAGAUCAACAGAGGAUUGAGCAUCA
B2: 160235901_160243599_830_3pUTR_ENSG00000109756_ENST00000264431|human|control|control (ssRNA)
RNA: GGGAGUUCUACAGUCCGACGAUCUUCCACCACUGCGAACACCAUCACAGCACAGAGUUCUCGCCUCACUGACAUUGUCAUAUUGGCAAAAGCAGGCAACUGGUGCAUAAAUUCCAAGAGUUGUUCAAUGUCAUCAUCUGUCCGCAACAGAGGAUUGAGCAUCA
B3: 30634579_30634699_343_CDS_ENSG00000106105_ENST00000389266|human|control|control (ssRNA)
RNA: GGGAGUUCUACAGUCCGACGAUCGCUGCUCCGGGAGGCGGCGGCGGGCAAGGAGAUCGGGGGGCAGGAGGCCGCGCUGAGGGACCGGCGGAGCAGGAGCGAGGGUCGGGCUAAGAGCCGGGGCGGCAGCAGCAGCAGCAGAGCCAACAGAGGAUUGAGCAUCA
B4: chr17:56236750:56236751:+_ENSMUSG00000002833_ENSMUST00000002911|mus_hu|FALSE|FALSE (ssRNA)
RNA: GGGAGUUCUACAGUCCGACGAUCCCUCCGCUCCUUCUCCUCCUUCUCCUGCUCCCGCAGGCGCCGCAGCUCCUCCUCCUGCUCUCGCCGCCGCCGGGCCUCCAGCUCGCGCCUCCGCGCCUCGUCCCGCCGCUUCCACUCACUCAACAGAGGAUUGAGCAUCA
B5: chr16:23111026:23111027:+_ENSMUSG00000022884_ENSMUST00000148085|mus_mus|motif|central (ssRNA)
RNA: GGGAGUUCUACAGUCCGACGAUCGAUAUGCUACCCACAAAGAUCAUGAUGAUCUCCAAGCUGAGUAUUUAUUGCUGGUCGGAAUACUUAUUGCACCGAAUCUUAUGACAUAGGACACUGGACAUUAAGAAAGAGGUCCACCCCCAACAGAGGAUUGAGCAUCA
B6: chr10:62551973:62551974:+_ENSG00000170312_ENST00000395284|hu_hu|motif|central (ssRNA)
RNA: GGGAGUUCUACAGUCCGACGAUCUAACAUUUUCGAGAGCAAAUCCAAGCCAUUUUCAUCCAAGUUUUUGACAUGGGAUGCGGGGCUUCCUGGUUUCCAUUUGGGAAAUGUAUUCUUAUAGUCCUGUAAAGAUUCCACUUCUGGCAACAGAGGAUUGAGCAUCA
B7: chr7:90019433:90019434:+_ENSMUSG00000057706_ENSMUST00000082237|mus_hu|mus_mus_mus_hu_True|78_88 (ssRNA)
RNA: GGGAGUUCUACAGUCCGACGAUCAAAUAAUACAGUGUUCUUUGCCAAAGGCCAUACUAAAAAUAAAAAGAUUUAACCCAGCUACAAAAAAGUUCACUGAACUUAAAUUAAAAUACUUGUAAACAUCUUUGCAAUAUGAAAUAUCAACAGAGGAUUGAGCAUCA
B8: chr8:74858975:74858976:-_ENSG00000154582_ENST00000284811|hu_mus|hu_hu_hu_mus_True|38_38 (ssRNA)
RNA: GGGAGUUCUACAGUCCGACGAUCGACCUUGUAGGUAAAAUACAUGCACACUUUUGAUAGCACAUGUGAGGGGAUCUCUCUAAAAUUGACCUCGUUGGUUUCGUUCUCAGCAAACUGACCUGGACCACUCAACAUAGCCUUUAUCAACAGAGGAUUGAGCAUCA
B9: 52131463_52132751_2120_CDS_ENSG00000112118_ENST00000229854|human|control|control (ssRNA)
RNA: GGGAGUUCUACAGUCCGACGAUCAUCUUUGGCAUCUGGCUGGCGAGUCUUCCUUCUCUUCCUCUUCUGCUCCUGGUCCUCUUGGCUUUUCUCCUCUUCAUCUUCUGUCUCUGAUUCAUCCUCACUUCGCUUCUUACGUUUCUUCAACAGAGGAUUGAGCAUCA
B10: chr1:137302511:137302512:-_ENSMUSG00000041879_ENSMUST00000161189|perfect_dup|motif|central (ssRNA)
RNA: GGGAGUUCUACAGUCCGACGAUCUUAACGGUGCUUUUGAACUUGCUGUUCUCCAGUAGGGCAUGGACAAACUCAAAAAUGCGGAAGACGAGGUUCUCAAAGCCCAGGACUUCUCCAUCCGAAUCCACAGGAUCUUCCACUUCCCAACAGAGGAUUGAGCAUCA
B11: chr7:141438946:141438947:+_ENSG00000106028_ENST00000265304|hu_mus|hu_hu_hu_mus_True|88_88 (ssRNA)
RNA: GGGAGUUCUACAGUCCGACGAUCGACGAAAUACCUGUAACACAGGUGAAACAUGGCUGGCUUCUGUUUUUCUUACAACCUAAUCUUUAGGCUUUUCCUAAAGGAAAGAAAGAAAAGAGAAAAAUGAUAAAUCAAGAAACUACACAACAGAGGAUUGAGCAUCA
B12: chrX:135579806:135579807:+_ENSG00000102241_ENST00000218364|hu_mus|FALSE|FALSE (ssRNA)
RNA: GGGAGUUCUACAGUCCGACGAUCCAAGUUGUUGCCACUCAUGGUUCUCACGUAGUCCCGGACACCGCGGUCAGAGAAGUGAAGAGGCCGAGAGGGCGCUGGCGGGCUCCGCAGGGCCUCGCCGCCGCCGCUGCUGGGGCCAGGCAACAGAGGAUUGAGCAUCA
B13: chr3:38349274:38349275:-_ENSMUSG00000044864_ENSMUST00000156038|mus_hu|motif|central (ssRNA)
RNA: GGGAGUUCUACAGUCCGACGAUCGAAACAAAUAAGCAAGGCAGGGCAUCUCCAGCACCCAUCCUAUCAUCCUUAUCCGGACUCAAAGUCAUUUAUGUUCUAUUCCAAAACAUAAUUUAUAUAAAAACAUCCCGAGGAAUACUUCAACAGAGGAUUGAGCAUCA
B14: chr19:16212804:16212805:+_ENSG00000167460_ENST00000300933|hu_mus|hu_hu_hu_mus_False|18_78 (ssRNA)
RNA: GGGAGUUCUACAGUCCGACGAUCAACAAUUCUGGAGUGAAGGAAAGAUGUAACAUGCAAUUAAUUAAAAGCUCAGUCAGAAGGCACAUGGGCAACAAUGAUCACCCCAGCAUUCUCCUACGUUGACCUUAAAGACAAUCUGUUCAACAGAGGAUUGAGCAUCA

Each binder was assayed against T1, UNK ZnF1-3 (human, UniProt Q9C0B0 31-174) (assay: nsRBNS (natural sequence RNA bind-n-seq); RBNS binding buffer (assumed for nsRBNS): 25 mM Tris pH 7.5, 150 mM KCl, 3 mM MgCl2, 0.01% Triton X-100, 500 ug/ml BSA, 20 U/ml SUPERase-In, 4 C; UNK is unkempt and MSI1 is Musashi-1; names of the RNAs are library labels; protein concentration not given here; high values mean tight binding).
T1 sequence: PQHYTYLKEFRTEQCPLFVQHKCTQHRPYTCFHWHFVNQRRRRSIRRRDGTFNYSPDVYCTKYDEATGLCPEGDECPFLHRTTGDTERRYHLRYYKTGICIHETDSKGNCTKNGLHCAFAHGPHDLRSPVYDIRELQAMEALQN

Binder	binding signal [enrichment R]
B1	1.27
B2	1.09
B3	2.73
B4	0.722
B5	1.11
B6	0.7
B7	1.82
B8	0.71
B9	0.289
B10	1.17
B11	0.798
B12	0.833
B13	1.39
B14	1.05
